Data on 14 molecules can be found in publication PMC12136788.

Sequences and labels used below:
T1: UNK ZnF1-3 (human, UniProt Q9C0B0 31-174)
T1 sequence: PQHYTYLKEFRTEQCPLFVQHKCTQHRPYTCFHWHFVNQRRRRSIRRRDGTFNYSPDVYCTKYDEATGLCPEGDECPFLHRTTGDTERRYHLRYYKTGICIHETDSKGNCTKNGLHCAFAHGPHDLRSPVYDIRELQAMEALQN

B1: chr16:94690093:94690094:+_ENSMUSG00000040785_ENSMUST00000117648|mus_hu|mus_mus_mus_hu_True|38_78 (ssRNA)
RNA: GGGAGUUCUACAGUCCGACGAUCGGGCUGGGAUGACGGACACACAGCCUCGAUUCCGGUAAAAAAAAGUCUUAGUCGAUACUAAUUAAAAAGUGUUUUUAUAAUUGGAAAAUCAGAUUACAUCUAUAAAAGAUGAAAAGCAAACAACAGAGGAUUGAGCAUCA
B2: chr15:25293464:25293465:-_ENSMUSG00000045763_ENSMUST00000058845|mus_mus|FALSE|FALSE (ssRNA)
RNA: GGGAGUUCUACAGUCCGACGAUCAAAAAUAUCUGGAGAGGAAAAAUGGAGGGUUGGCAUUGAGAUACAUGUGGACAAGCUAAGUGGGCUCCGUCUGAAAGUUGGCAUUCAUCCACGAACGUUUAAAAAAAUACCAAAAAAAUUCAACAGAGGAUUGAGCAUCA
B3: chr6:41757443:41757444:+_ENSG00000214736_ENST00000398881|hu_mus|hu_hu_hu_mus_False|18_88 (ssRNA)
RNA: GGGAGUUCUACAGUCCGACGAUCGAACCGUGCAGAGGCAACAUCUCGGAAUUCUGCGGGGGAUGGGGGGGCAGUGGGGGGGGGUUCAGGCAAGGAGAGGGAGUCAACUUCAGCUGCUCAAACUUCAGGAUCUUGUGGUCACAGCAACAGAGGAUUGAGCAUCA
B4: chr2:29769918:29769919:+_ENSMUSG00000026790_ENSMUST00000113756|mus_mus|FALSE|FALSE (ssRNA)
RNA: GGGAGUUCUACAGUCCGACGAUCCUGCAAAUGCCCCCGCAUGGACUCCAUGGACUUGGAAAGCUCAGACGCUGUCUUUGCUUGAGCCUUUUCACAUUGUAUCUCCUGGAGGAGUUCUUCCACCUCCUUGUCCUUGUCUUGCAGCAACAGAGGAUUGAGCAUCA
B5: chr10:112362727:112362728:-_ENSMUSG00000074748_ENSMUST00000099276|mus_hu|FALSE|FALSE (ssRNA)
RNA: GGGAGUUCUACAGUCCGACGAUCGAUCCCAGCAUGCGAUAAUGCCAGGCAGUGGUCCCUGGGCAUGCGAUGGUGGGAACUAAUGUAUGGAAGAAAAAGCCACAAACCACAGAAAUUUUAAAGAACCCCCCCCUUCCCCCAUAACAACAGAGGAUUGAGCAUCA
B6: chr5:134670393:134670394:-_ENSG00000113648_ENST00000304332|hu_mus|motif|central (ssRNA)
RNA: GGGAGUUCUACAGUCCGACGAUCAGGGGAGGGACCGCUGCUCCGCUGCUCUGUGUUAAUCAGGACUUCAUUAGAGUGAAACGGUAAAAUCCUCUAGGUUGACUAAGUCAGACACGGUCUGGAAAGCAGUGCUUAACAAGGACGCAACAGAGGAUUGAGCAUCA
B7: chr4:103720638:103720639:-_ENSG00000109332_ENST00000394803|hu_hu|FALSE|FALSE (ssRNA)
RNA: GGGAGUUCUACAGUCCGACGAUCGAUCCGUGCAAUCUCUGGCACUAGGGGGUCAUCUGGGUUUGGAUCACAUAGCAGUGAACAAAUGGAUAAAAGAACUUUAGAAAUUGUUAAAGCAGGCGACCACUGUGAUCUUAGAAUAUCCAACAGAGGAUUGAGCAUCA
B8: chr11:61589858:61589859:-_ENSMUSG00000004798_ENSMUST00000004920|mus_hu|FALSE|FALSE (ssRNA)
RNA: GGGAGUUCUACAGUCCGACGAUCUUCAAGAAUAAUGCAUGCAGUUACAAAUGAGAGGUAGAAACACUGUAUUAAAGACCUAAAAAUACAAACGUCAUAUAAAUAAAUGUUCAAAUUAACUACUGGAAUUUCAUACAGAUAAAUCAACAGAGGAUUGAGCAUCA
B9: 121499381_121518024_256_CDS_ENSMUSG00000028127_ENSMUST00000029770|mouse|control|control (ssRNA)
RNA: GGGAGUUCUACAGUCCGACGAUCUGGCGGUUUUCCACUUUUCUUACCGUGCAGGCCGAGGGCGCGACGCCGCUUAUGGAGUAGGCAGAGCAGCAGGAACGCGGCCCCCGCCAGCGAGGUGUUCCGUGCCGUCAAGUACUUGCUCAACAGAGGAUUGAGCAUCA
B10: chr1:39494447:39494448:+_ENSG00000168653_ENST00000372967|hu_mus|hu_hu_hu_mus_False|28_38 (ssRNA)
RNA: GGGAGUUCUACAGUCCGACGAUCGCACCGAGCGGCGUUCUUAUAGGGCUGUUCUGCGCUUAGGAACAUAAAGUGCCGGUCCAGGCUGAUGCCCAGCCUUUUCUGGAUGUCCAAGAAAGGCAUGGCUCUGCAGUGCCCUUGUCACAACAGAGGAUUGAGCAUCA
B11: 85028687_85029981_564_CDS_ENSMUSG00000018481_ENSMUST00000018625|mouse|control|control (ssRNA)
RNA: GGGAGUUCUACAGUCCGACGAUCGAAGGAGUAGGCCAAGACGGAAGCUACCUUAACGCCAUGGUCCAUCAGAGCCUGAAAACAGUGGUGGAGCAAAUGUCUUUUAUCCAAAGCUCUCAAAACUUUAGCAAAAACUUCCAAUUCCAACAGAGGAUUGAGCAUCA
B12: chr11:60965389:60965390:-_ENSMUSG00000042506_ENSMUST00000041683|mus_mus|motif|central (ssRNA)
RNA: GGGAGUUCUACAGUCCGACGAUCCCCCUCAAAAUGACAAGGGAAAGAAAAGUGACAUAAAUGUCUUGGUAAUAAAACUCCGGACCACAGUACAAUCAUUGGAUUUUUUUUCCCUCACGAUUUUUUAUUUCAAAGCUAUAAUAACAACAGAGGAUUGAGCAUCA
B13: chr16:16313726:16313727:-_ENSMUSG00000022789_ENSMUST00000023477|mus_hu|FALSE|FALSE (ssRNA)
RNA: GGGAGUUCUACAGUCCGACGAUCUACAAUGACUCUAUGUGAGGAACUUGCCAACUCACAUCUUUCAAAGCCAGAUCAGCUUAUAUAGUACAUGCAUUAUAGUCAUAUGAAAUGUUGUCUUGGUGCUUUCUUCUUGGAGGACUACAACAGAGGAUUGAGCAUCA
B14: chr8:24049560:24049561:+_ENSMUSG00000031540_ENSMUST00000044331|mus_mus|FALSE|FALSE (ssRNA)
RNA: GGGAGUUCUACAGUCCGACGAUCGCUGUUGACAGAGCGGACUGACUGGCUAGGAUGAGACGGAAUGGAGGAUAUCGGGCUAUUAUGCUCUGAAGCAUGACAGUCUUCAACCAUUGACAUCUGGGGGUCCUCAUCAGUGUGGGUCAACAGAGGAUUGAGCAUCA

The list shows a part of the results.

The experiment deals with T1, UNK ZnF1-3. Briefly: nsRBNS (natural sequence RNA bind-n-seq); RBNS binding buffer (assumed for nsRBNS): 25 mM Tris pH 7.5, 150 mM KCl, 3 mM MgCl2, 0.01% Triton X-100, 500 ug/ml BSA, 20 U/ml SUPERase-In, 4 C; UNK is unkempt and MSI1 is Musashi-1; names of the RNAs are library labels; protein concentration not given here; high values mean tight binding.
Consider B1, for which the binding signal was 1.62 enrichment R.
The molecule B2 returned a binding signal of 2.72 enrichment R.
Then B3, with 2.83 enrichment R.
Under B4 stands 0.532 enrichment R; under B5, 1.91 enrichment R.
Under B6 stands 1.01 enrichment R; under B7, 1.75 enrichment R; under B8, 1.64 enrichment R.
Turning to B9, the binding signal stood at 0.726 enrichment R.
In the case of B10, the binding signal came to 0.743 enrichment R.
Then B11, with 0.9 enrichment R; and B12, with 1.16 enrichment R; and B13, with 1.08 enrichment R.
For the molecule B14, the binding signal was 1.13 enrichment R.
